# Test results reported in the supplement of paper PMC12217912.
# Some of the results follow. The full chains were built here from the parent and the listed change. Values near 0.05 are background.
# B1: TEV protease; numbered along this chain (parent)
# chain: MGESLFKGPRDYNPISSSICHLTNESDGHTTSLYGIGFGPFIITNKHLFRRNNGTLVVQSLHGVFKVKDTTTLQQHLVDGRDMIIIRMPKDFPPFPQKLKFREPQREERICLVTTNFQTKSMSSMVSDTSCTFPSGDGIFWKHWIQTKDGQCGSPLVSTRDGFIVGIHSASNFTNTNNYFTSVPKNFMELLTNQEAQQWVSGWRLNADSVLWGGHKVFMVKPEEPFQPVKEATQL
# Variants of: B1
# Assay: raw area under fraction-flipped curve 0-4 h after induction (AUC4h, not background-subtracted), DNA-recorder readout of cleavage of the substrate (dimensionless); higher = more cleavage of the substrate by the protease variant
# Conditions: temperature: 34 °C; time window: 0-4 h after rhamnose induction
# 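Note: Bxb1 expression induced with 0.2% (w/v) L-rhamnose at OD600 near 0.5, cultures sampled hourly, flipped fraction per protease–substrate barcode pair counted by paired-end Illumina sequencing.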
Variant,area with substrate ENDYFQS,area with substrate ENEYFQS,area with substrate ENFYFQS,area with substrate ENKYFQS,area with substrate ENPYFQS,area with substrate ENQYFQS,area with substrate ENRYFQS,area with substrate ENSYFQS,area with substrate ENTYFQS,area with substrate ENGYFQS,area with substrate ENHYFQS,area with substrate ENVYFQS,area with substrate ENNYFQS,area with substrate ENYYFQS,area with substrate ENWYFQS,area with substrate ENIYFQS,area with substrate ENMYFQS
F163V,0.0631,0.0644,0.0787,0.0653,0.0652,0.0724,0.0616,0.0538,0.0719,,,,,,,,
V217A,0.0717,0.0581,,,,0.0503,,0.0547,,0.0588,0.0513,0.0604,,,,,
E231H,0.065,0.062,0.0389,0.0624,,0.0577,,0.0504,0.073,0.08,,0.0709,0.0597,0.0461,,,
T233K,0.0526,0.0626,0.0696,0.0572,,0.0574,0.073,0.0619,0.0655,0.0526,0.0537,0.0856,,,0.0658,,
R50D,,0.0648,,,,0.0533,0.0425,0.0598,,0.0653,,0.0704,0.0612,,,0.0866,0.0723
E107A,,0.0768,0.0725,,0.0483,0.0593,0.0732,0.0571,0.0658,0.0411,0.0567,0.0706,0.0592,,0.0768,,
